These results are taken from PubChem BioAssay AID1347073 (National Center for Advancing Translational Sciences (NCATS), 2019).

Out of some 45,000 compounds screened, about 200 (0.44%) were called active. About 7% were inconclusive and are not listed. Calls follow the shape of the dose curve; as a rule, active = well fitted activation curve with a large enough effect; inconclusive = small, poorly fitted or top-dose-only effect; inactive = no such curve, though single readings can be large or run the other way. The list shows a part of the results.

The nature of this test: qHTS of TDP-43 Inhibitors: NCGC Sytravon Library Screen. Also: 0% is about no effect; nearly all actives have a fitted effect of over 55% in size. To be noted: yeast TDP-43 toxicity rescue, BacTiter-Glo growth, 24 h; series mostly up to 46.1 µM; growth rescue (activation): at the top concentration. The method, boiled down:
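TDP-43-expressing yeast, pregrown in raffinose, seeded at OD600 0.02 in galactose medium with compound for 24 hr at 30 deg C. Growth read by BacTiter-Glo luminescence, so rescue of toxicity appears as activation.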
On the technique in general: qHTS replaces the single test concentration by a dilution series.
Regarding `COc1ccc(C(C)(NC(C)=O)c2nc(-c3ccc(F)cc3OC)cs2)cc1` (stereo not given), the “growth rescue (activation)” value is inactive: 19.1%.
The value for `CC(CN1CCN(C)CC1)OC(=O)c1ccc(Cl)cc1` (stereo not given) was inactive: -11.8%; that for `COc1ccc(N2C(=O)C(CN3CCN(C)CC3)C2c2ccccc2)cc1` (stereo not given) was inactive: -2.98%; that for `O=C(NN1C(=O)/C(=C/c2ccc(O)c(O)c2)SC1=S)c1ccccc1` was inactive: -15.8%.
As to `CNC(=O)CS(=O)(=O)CC(=O)Nc1cc(OC(C)C)c(Cl)cc1Cl`, the “growth rescue (activation)” value is inactive: -10.5%.
For `C/C(=N\NC(=O)C(N)=O)c1ccc(O)cc1O`, the “growth rescue (activation)” value is inactive: -2.59%.
`CN(Cc1ccon1)Cc1cn[nH]c1-c1ccc(-c2ccccc2)cc1`: the “growth rescue (activation)” value was inactive: 7.54%.
The value for `CCNC(=O)N1CCCC(C(=O)c2ccc3cc(OC)ccc3c2)C1` (stereo not given) was inactive: 4.25%.
`O=C(NCCCc1nc2ccccc2n1Cc1cccc(Cl)c1)C1CCCCC1`: the “growth rescue (activation)” value is inactive: 5.65%.
The value for `COc1ccc(CN(CC(=O)NCc2ccccc2)C(=O)CCC(=O)Nc2nccs2)cc1` was inactive: -3.05%.
The value for `O=C(COC(=O)c1ccccc1-c1nc2ccccc2s1)NC1CCS(=O)(=O)C1` (stereo not given) was inactive: -0.982%; that for `O=c1oc(-c2ccccc2[N+](=O)[O-])nc2ccccc12` was inactive: 14.1%; that for `COc1cc(/C=C(\C#N)C(=O)NC(C)C)ccc1OCc1ccc(C(=O)O)cc1` was inactive: 3.57%.
As for `C=CCOc1ccc(/C=N/NC(=O)C(=O)N2CCCCCC2)cc1OC`, the “growth rescue (activation)” value is inactive: 4.18%.
Turning to `CC(C)C1Oc2cc3oc(=O)ccc3cc2C1=O` (stereo not given), the “growth rescue (activation)” value was inactive: 9.93%.
The value for `COc1ccc(Br)c(C(=O)N2CCCC2(C)C(=O)NCC(C)C)c1` (stereo not given) was inactive: -2.19%; that for `CCCN1CCc2c(sc3nc(SC)n(-c4ccccc4)c(=O)c23)C1` was inactive: -6.67%.
With `CCCCN(CC)CCNC(=O)c1cc2c(=O)[nH]c3ccccc3c2s1` the figure was inactive: -8.41%; with `CC(C)OC(=O)CC(=O)CSc1nc(-c2ccc(F)cc2)cc(-c2ccccc2)c1C#N`, inactive: 10.1%.
With `CC(NC(=O)C1=CC=CN2CCS(=O)(=O)N=C12)c1ccc(Cl)c(Cl)c1` (stereo not given) the figure was inactive: -1.93%; with `Cn1cnnc1SCc1ccc(C(=O)N/N=C(/CCC(=O)O)c2ccc(C(C)(C)C)cc2)cc1`, inactive: 6.17%; with `CCCCC(CC(C)O)c1n[nH]c(=S)n1-c1ccccc1` (stereo not given), inactive: -19.3%.
For the compound `CCOC(=O)c1ccc(-c2ccc(/C=N/NC(=O)CN(c3ccccc3Cl)S(C)(=O)=O)o2)cc1`, the “growth rescue (activation)” value is inactive: -5.81%.
In the case of `CCCOc1ccc(CNC(=O)C2CCN(C(=O)c3sccc3-n3cccc3)CC2)cc1`, the “growth rescue (activation)” value was inactive: 15.3%.
For the compound `N#CCn1c(CN2CCCC2)nc2ccccc2c1=O`, the “growth rescue (activation)” value was inactive: 9.54%.
With `CC(C(=O)N(C)C1CCCCC1)N1CCC(C(N)=O)CC1` (stereo not given) the figure was inactive: 11.6%.
The value for `O=S(=O)(NCC1CCCO1)c1ccc(NS(=O)(=O)c2ccc(F)cc2)cc1` (stereo not given) was inactive: 8.35%; that for `CC(=O)c1ccc2c(c1)OCCOCCOCCOCCOCCO2` was inactive: -6.75%; that for `CCNC(=O)C1CC(=O)N(CCCc2ccccc2)C(=Nc2ccccc2)S1` (stereo not given) was inactive: 4.39%.
Turning to `CCN(CC)c1ncnc2c1ncn2[C@H]1CN(C2CCCC2)C[C@@H](CO)O1`, the “growth rescue (activation)” value was inactive: 1.1%.
Take `C[C@H](NC(N)=O)C(=O)Nc1ccc(OCc2ccccc2)cc1`: the “growth rescue (activation)” value was inactive: 22.1%.
With `CC1CN(S(=O)(=O)c2ccc(C(=O)Nc3nc(-c4cc5ccccc5o4)cs3)cc2)CC(C)O1` (stereo not given) the figure was inactive: 7.48%; with `Nc1cccc(C(=O)Nc2ccc3nc(-c4cccnc4)[nH]c3c2)c1`, inactive: 4.4%.
On to `O=C(COC(=O)Cc1ccc(Cl)cc1)Nc1ccccc1-c1ccccc1`, for which the “growth rescue (activation)” value was inactive: 23.3%.
With `NC(=O)CCCSc1nc2ccccc2[nH]1` the figure was inactive: -1.23%.
Consider `O=C(COc1cccnc1[N+](=O)[O-])N1CCc2ccccc21`, for which the “growth rescue (activation)” value is inactive: 3.22%.
In the case of `NC(=O)NOCc1ccccc1F`, the “growth rescue (activation)” value is inactive: -6.37%.
Regarding `O=C(Nc1ccc(Cl)cc1Cl)NC1CCCC1`, the “growth rescue (activation)” value was inactive: -0.611%.
For `O=C(CSc1nc(-c2ccc(F)cc2)cc(C(F)(F)F)n1)NCc1cccs1`, the “growth rescue (activation)” value was inactive: 9.41%.
Turning to `CN(C)CCn1c(=O)n(C2CCCCC2)c(=O)c2c3c(sc21)CCCCC3`, the “growth rescue (activation)” value is inactive: -28.8%.
With `CCN(CC)S(=O)(=O)c1cc([N+](=O)[O-])ccc1N=Nc1c(O)n(C)c2ccccc12` the figure was inactive: 18.2%; with `COc1cc(NC(=O)CCS(=O)(=O)c2ccc3c(c2)n(C)c(=O)c(=O)n3C)cc(OC)c1`, inactive: -0.206%.
As for `Cc1ccc2nc(CSc3nnc(Nc4ccccc4C)s3)cc(=O)n2c1`, the “growth rescue (activation)” value was inactive: 13.9%.
In the case of `O=C(NCc1ccc(F)cc1)c1cc(C2CCCCN2C(=O)c2cccs2)on1` (stereo not given), the “growth rescue (activation)” value was inactive: 22.8%.
For `Nc1nc(-c2cccs2)c(CC(=O)O)s1`, the “growth rescue (activation)” value is inactive: 9.33%.
The value for `O=C(OC(C(=O)NC1CCCCC1)c1ccccc1F)c1ccco1` (stereo not given) was inactive: -2.2%; that for `COc1ccc(NS(=O)(=O)c2cc(NS(=O)(=O)c3cccs3)ccc2C)cc1` was inactive: 1.61%.
With `CCOC(=O)C1C(c2ccc(O)c(O)c2)NC(=S)NC1(O)C(F)(F)F` (stereo not given) the figure was inactive: 7.32%; with `CCOC(=O)C1(C)CCCN1C(=O)c1ccc(C)cc1` (stereo not given), inactive: 3.81%; with `Cc1ccsc1-c1nc(CN(C)C(C2CC2)C2CC2)c(C)o1`, inactive: 12.2%.
Take `COc1ccc(-c2cc(NC=O)c3ncc(-c4ccc(C(C)=O)cc4)n3c2)cn1`: the “growth rescue (activation)” value was inactive: 18%.
On to `COc1ccc(-c2[nH]ncc2CN2CCC(N3CCSCC3)CC2)cc1F`, for which the “growth rescue (activation)” value was inactive: 5.2%.
The value for `CCC(C)NC(=O)c1ccccc1NC(=O)COc1ccc(OC)cc1` (stereo not given) was inactive: 24.3%.
As for `CCCCNC(=O)/C=C1\Sc2ccccc2NC1=O`, the “growth rescue (activation)” value is inactive: 9.03%.
As to `C=CCNc1nc(NCCOC)c2sc(-c3ccccc3)cc2n1`, the “growth rescue (activation)” value is inactive: 9.72%.
